Read counts are not given, so values of variants with three or more changes are uncertain.
B1: LINE1-mini (parent)
chain: GGCAGAGCUCAACACAGCGUGGCAAAGUGGCUGUGGCUAGACUGCC

Variants of: B1
Experiment: self-cleavage, relative activity (ratio to wild type); higher = more cleavage; in vitro, sequencing; the parent is a self-cleaving ribozyme

Variant | self-cleavage
GGCAGAGCUCAACACAACGCCGCAACGUGGCUGUGGCUAGACUGCC | 0.33
GGCAGAGGUCAACACAGCGUGGCAAAGUGGCUGUGGCUAGACUACA | 0.01
GGCAGAGCUCAACACAGCGUGGCAAAGUACUUGUGUCUAGACUGCC | 0.03
GGCAGAACUCAACACCGCGUGGCAAAACGGCUGUGGGUAGACUGCC | 0.02
GGAAGAACUCAACACCGCGUGGCAAAGUGACUAUGGCUAGACUGCC | 0.1
GGCAGAGCUUAACACACCGUGUCAAAGUGGCUGUGGCUAGACUGCC | 0.58
GGCAGAGCUCAAUACAGCGUGGCAAAGUGAUUGUGGCUAGACUGCC | 0.03
GGCCGAGCUCAACACAGCGUGGCAAAGCGGAUGUGGAUAGACUGCC | 0.09
GGCAGAGCUCGACACAGCGUGGCAAAGUGGCUCUGGCUAGACUGAC | 0.02
GACAGAGCUCAACACAGCGUGGCAAAGUGGCUGUUGCUAGAGUGCC | 0.22
GGCAGAGCUCAACACAGCGCGGCAAAGUGGAAGUGGCUAUACUGCG | 0.01
GUCAGAGAUCAACACUGCGUGGCAAAGUGGAUGUGGCUAGAAUGCC | 0.03
GGCAUAGCUCAACCCAGCGUGGCACAGUGGCUCUGGCUAGACUGCC | 0.08
GACAGAUCUCAACACAGGGUGGCAAAGUCUCUGUGGCUAGACUGCC | 0.06
GGCAGAGCUCAACACAGCAUGGCAAAGUGGUUGGGGCUAGAUUGCC | 0.03
GGCAGAGCUCAACACAGCGUGGGAAAGUGGAUGUGGCUAGACUACC | 0.06
GGCAGAGCUCAAAACAGCGUGGCACAGUAGCUGUGGCUAGACUGCC | 0.01
GGCAGAGCUCUACACAGCAUGGCCAAGUGGCUGUGGCUAGACUGCC | 0.08
GGCACAGCUUUACACAGCGUGGCACAGUGGCUGUUGCUAGAGUGCC | 0.01

Variant | self-cleavage
GGCAGGGCUCAACGCAGCGUGGCAAAGUGGCUGUGGCUAUGCUGCC | 0.15
GGCAGAGCUCAACGCAGGGUGGUAAAGUGGCUGUGGCUACACUGCC | 0.07
GGCAUAGCUCAACACAGCGUGGCAAAGUGGCGGUGGCUAGUCUGCC | 0
GGCAGAGCUCAAAAAAGCACGGCAAAGUGGCUGUGACUACACUGCC | 0.11
GGCAGAGAUCAACUCAGCGUGGCAAAGUGGCUGUGGCUAGUCUGCC | 0.07
GCGAGAGCUCAACACAUCGUGGCAAAGUGGCUGUGGCUAGACUCCU | 0.03
GGCAGAGCUCAUCACAGCGUGGCAAAGUGGAUGUGGCUAGACUGAC | 0.02
GGCAGAGAUCAACACAGCGUGGCAAAGUGGCUGUUGCUUGACUGCC | 0.07
GGCGGAGCUCAACACAGCGGGGCAAUGUGGCUGUGUCUAGACUGCC | 0.05
GGCAGACAUCAACACAGCGCGGCAGAUUGGCUGUGGUUAGACUGCC | 0.1
GGAUGAGCUCAACACAGCGUGGCAAAGUGGCUGUGGCUAGAGUGCC | 0.39
GGCAGAGCUCAACACAGCGUGGCAAAGUGGCUGAGGUUAUACUGCC | 0.03
GGCAGAGCUCAACACAGCAUGGCAAUCUGGCUGUGGCUAGACUGCC | 0.21
GGCAUAGCUCAACAAAGCGUGGCAAAGUGGCUGUGGCUAGAAUGCC | 0
GGCAGAGCACAAGACGGCGUGGCAAAGUGGGUGUGGCUAGACGGCC | 0.02
GGCAGAGAGCAACACAGCGUGGCAAAGUCUCUGUGGCUAGACUGCC | 0.05
GGCAGAGCUCAACACAGCGUGGCAAAGUGGCUGGGUCUAGUCUGCC | 0.1
GGCAGCGCUCAACACAGCGUGGCAAAGUGGACGUGGCUAGAUUGCC | 0.1
GGCAGAGCUAAACUCAGCGUUGCAAAGUGGCUGUGGCUAUACUGCC | 0.02

Variant | self-cleavage
GGCAGAGCUCAUGACAGCGUGGUAAAGUGGCUGUGUCUAGACUGCC | 0.05
GGCAUAGCACAACACAGAGUGGCAAAGUGGCUGUGGCUAGCAUGCC | 0.16
GGCAAAGCUCAAUACAGCGUGGCAAAGUGGCAGUGGCUAGACUGCC | 0.09
GGCACAGCUCAACGGAGCGUGGCAAAGUAGCUGUGGCUAGACUGCC | 0.01
GGCGGAGCUCAACACAGGGGGGCAAAGUGGCUGUGGCUAGACUGCC | 0.05
GGCAUAGUUCAACAAAGCGUGGCAAAGUGGCUUUGGCUAGACUGCU | 0.42
GGGAGAGCUCAACACAGUGUGGCAAAUUGGCUGGGGCUAGACUGCC | 0.03
GGCAGUGCUAAACACAGCGUGGCAAAGUGGCUGUGGCUAGACUGUC | 0.06
GGCAGAGCUAAACCCAGCGGGGCAAAGUGGCUGUGGCUCGACUGCC | 0
GGCAGAGCUCCACAUAGCGUGGCAAAGUGGCUGUGGCUAUACUGCC | 0.02
GACAGAGCUCAAGACAUCGUGGUAAAGUGGCUGUGGCUAGAAUGAC | 0.02
GGCAGAGCUCAACACAGCGUGGCAAAGUGGCUGUGUCUAACCUGGC | 0.05
GGCAGAGCUUAACACAGCGUGGCAACGUGGCUGAGGCUAGACUGCC | 0.12
GGCAGAGCACAACACAGCGUGGCUAAGUGGCUCUGGCUAGACUGCC | 0.03
GGCCGAGCUCACCACAGCGUGGCAAAGUGGGUGUGGCAAGACUGCC | 0
CGCAGGGCUCAACACAGCGUGGCAAAGUGGAUGUGGCAAGCCUGCC | 0.01
GGCAAAGCUCAUCACUGCGUGGGAAAGUGGCUGUGGCUAGACUGCC | 0.05
GGCACAGCACAACACAGCGUGGCAAAGUGGCUGUGGCUAGACUUCC | 0.02

From the RNAGym collection of RNA variant scans (doi:10.7554/elife.90254)
